Experimental data from publication PMC12136788.
The other results are listed elsewhere or left out.

B1: chr17:2300308:2300409:-|CDS|ENSG00000070366|unk|FALSE|unique (ssRNA)
RNA: GGGAGUUCUACAGUCCGACGAUCGACCCAGAAAAUAAUCGGGGACAAGAAUCCUUUCCUAGGACUGCUGGACAAGAGGAUCGUAGUCUAAAAAUUAUCAAAAGAACAAAGAAACCCGACCUGCAGAUCUAUCAGCCUGGACGACAACAGAGGAUUGAGCAUCA
B2: chr12:89590234:89590335:-|3pUTR|ENSG00000070961|msi1|FALSE|bound_elsewhere (ssRNA)
RNA: GGGAGUUCUACAGUCCGACGAUCUUUGCCUACAAUUUACCUUGUUAAAUAUUGUAGAUAAAUUGCUAAUACUAAUAGCCAAAUAGAUAACACUAAUGCUUUGUUUAAAAAAACGAAAAAAACAAAACAAAACAAAAAAACAUGCAACAGAGGAUUGAGCAUCA
B3: chr3:17009782:17009883:+|CDS|ENSG00000154822|unk|total|mutant (ssRNA)
RNA: GGGAGUUCUACAGUCCGACGAUCAAUUCAAUGGUUGAGGGUUCAGAACUCAAAAAGGUUCGCUCCAACUCCCGAAUUUAUCACCGGUACUUUUUACUGGAUGCUGACAUGCAGAGCCUAAGGUGGGAGCCAUCUAAGAAGGAUCAACAGAGGAUUGAGCAUCA
B4: chr15:52122579:52122653:-|3pUTR|ENSG00000069966|msi1_unk|total|mutant (ssRNA)
RNA: GGGAGUUCUACAGUCCGACGAUCUCUUCACAUGUAAACCGAUAUUACUUCCCGAGGAGCUCCGAGUUUAUUGCAGUGCCGCUCCGGGGAGCAACCCAUGGCUCACAGGUCACUAAGCGUCUCCAAUAUGACUAUUAAAACUGUCAACAGAGGAUUGAGCAUCA
B5: chr8:80499649:80499757:+|CDS|ENSG00000205189|unk|total|mutant (ssRNA)
RNA: GGGAGUUCUACAGUCCGACGAUCUAAGACUUUAUAUUGCUUUUCAAACAAAGAAAGCCCUAACCAAAACAAUACUACCCACUCCGAUAUUGCUGCAGUUCAAGGUUUUUCAGUCAUCUUGGACUUCUUGUAUUCUGGUAACCUCAACAGAGGAUUGAGCAUCA
B6: ENSG00000107863:be:win_4601|CDS|ENSG00000107863|bound_else_gene|NA|bound_elsewhere_windowed (ssRNA)
RNA: GGGAGUUCUACAGUCCGACGAUCAGAAGUCCUCCCACCUUGAAGAGACAGGCUCUGACUCUGGCACUUUGCUCAGCACGUCUUCCCAGGCCUCCCUGGCAAGGUUUUCCAUGAAGAAAUCAACCAGUCCAGAAACGAAACAUACAACAGAGGAUUGAGCAUCA
B7: chr2:206311781:206311882:+|3pUTR|ENSG00000204186|unk|FALSE|unique (ssRNA)
RNA: GGGAGUUCUACAGUCCGACGAUCUAGUGUUUAGAGUCCUUUCAUUUUAAGAUUCAGAAACAGCCUUUGUCCAACAUUUUCUGUAGAAGAACUUCAUCUUAAUUUAUGUCACAAAAUAAUUUAGCACCGUAUAUAGAAUUUUGUCAACAGAGGAUUGAGCAUCA
B8: chr7:105566322:105567453:-|three_prime_utr|ENSG00000185055|control|control|control (ssRNA)
RNA: GGGAGUUCUACAGUCCGACGAUCAGUUUCAUUAAUUCAGAAUUUCAUCAUAUAACUUGAAAUCCAAUUGGCUUCCUCUUUCUUAGAAACAAAAACCAAAGAAACCUUUUUCUGAAAGACAUUAUUUUCCAGUAUUAGGCCAAUCAACAGAGGAUUGAGCAUCA
B9: chr10:11763304:11763405:+|CDS|ENSG00000134463|unk|total|mutant (ssRNA)
RNA: GGGAGUUCUACAGUCCGACGAUCGGGCUGCUCCGCAAGGUGGUGCCAGAGGCGGAGCUGCAGGAGGAGACCAUGCGGAUCGCCCGGAAGAUCGCAUCGCUGAGCCGUCCGGUGGUGUCCCUGGGCAAAGCCACCUUCUACAAGCAACAGAGGAUUGAGCAUCA
B10: chr17:82078764:82078865:-|3pUTR|ENSG00000169710|msi1_unk|FALSE|overlapping (ssRNA)
RNA: GGGAGUUCUACAGUCCGACGAUCCCGUGGGGUCUGCGCUUGGUCUUUCUGUGCUUGGAUUUGCAUAUUUAUUGCAUUGCUGGUAGAGACCCCCAGGCCUGUCCACCCUGCCAAGACUCCUCAGGCAGCGUGUGGGUCCCGCACCAACAGAGGAUUGAGCAUCA
B11: chr1:236581285:236581397:-|CDS|ENSG00000119285|unk|total|mutant (ssRNA)
RNA: GGGAGUUCUACAGUCCGACGAUCCAUCCCGAAGAUGUUUUUCAGUUAUUCAAGUUCUGUUCUGUUUUAUGGACCUAUGGUUCCCGCCUUUCAAAUCCACUAAACUGCAGUGUGAAAACAGUGCUGCAGACUCAAGCUCUUUAUCAACAGAGGAUUGAGCAUCA
B12: chr6:122432834:122432935:+|3pUTR|ENSG00000025156|msi1|total|mutant (ssRNA)
RNA: GGGAGUUCUACAGUCCGACGAUCAUAUACCGAAAGAUCGGGGGUGGGAUGGGAUGGAGUGAGCCCCAUCCAGUCCGUUGGACCCGUUUUAAAUAAAGGUUUUCCGGUUUGUGUUUUUUUGAACCAUACUGUUCCGUAAAAUAACAACAGAGGAUUGAGCAUCA
B13: chr2:39051162:39051270:-|CDS|ENSG00000115904|unk|total|mutant (ssRNA)
RNA: GGGAGUUCUACAGUCCGACGAUCAAAUAUAUUCCGUCGCACCGCCGAUAUACAUGAACUCCGUGUAAAGUUACUGGGCCAUACCGAAGAUACAGCCGAAAUGACAGAUGAAGGCAGUCCCCAUCCACCCGCCGGAAGCUGCUUCAACAGAGGAUUGAGCAUCA
B14: chr4:70820284:70820384:-|3pUTR|ENSG00000132463|msi1_unk|total|mutant (ssRNA)
RNA: GGGAGUUCUACAGUCCGACGAUCUGAACUGGUAUGGUUUGGCAGAACCGUUUUAAAUUUUGCUGUAUUUGAUUACUCCGAGACCGGAAUUUUUAAAAAUCAAAACAAAAAAUACCACAGCUCCGUGUAAAUGACAAUUUGGCGCAACAGAGGAUUGAGCAUCA
B15: chr7:7573188:7573293:+|CDS|ENSG00000164654|unk|FALSE|bound_elsewhere (ssRNA)
RNA: GGGAGUUCUACAGUCCGACGAUCCCAUAUUUCCACGAUCGUGUUGCUUCCUUCUAUGAAGGUCAGGUUGCAAUAUGGGAUCUUAGAAAAUUUGAGAAGCCAGUUUUGACAUUGACUGAGCAACCAAAACCCUUAACAAAAGUACAACAGAGGAUUGAGCAUCA
B16: chr17:47844907:47847298:-|three_prime_utr|ENSG00000189120|control|control|control (ssRNA)
RNA: GGGAGUUCUACAGUCCGACGAUCAAGGUGCGUAUUUAUUCAGGGAGGAGGAAAAGUGGUGCAGGGACAGGGAGAUGGGGCGCUAGGGGUUCUUAGUCUCUGGGGCUACUAGGCAGGAUGAAUUUGACUGGGUCGGUAGGAGCUCAACAGAGGAUUGAGCAUCA
B17: chr2:216675642:216675774:-|3pUTR|ENSG00000115461|msi1|FALSE|unique (ssRNA)
RNA: GGGAGUUCUACAGUCCGACGAUCUUUUUCUUUGUUUUUUUCUUUCUUCCUUUCUUUCAAAGGUUUGCAUUAACUUUUCAAAGUAGUUCCUAUAGGGGCAUUGAGGAGCUUCCUCAUUCUGGGAAAACUGAGAAAACCCAUAUUCAACAGAGGAUUGAGCAUCA
B18: chr17:48133441:48133816:-|three_prime_utr|ENSG00000141293|control|control|control (ssRNA)
RNA: GGGAGUUCUACAGUCCGACGAUCAGCUACCAGUAAGACAAGUGGGAAGAGGCACGUUCAUCAAACCUGUUACUAAACCAGCCUAGUCAUAGCUCAUCCCCAUCUCUAAAUGUGUCCACACAACCACAUCUGCCUUUUCCACAACAACAGAGGAUUGAGCAUCA
B19: chr1:235977234:235977335:-|3pUTR|ENSG00000116962|msi1|FALSE|unique (ssRNA)
RNA: GGGAGUUCUACAGUCCGACGAUCGUCUAAGACCCCCAUUAUAAUAUUCAUGCGCUGCUUUUUCAUCAAAACCUACCCUGUCCUAGAGAUCUAUGGGCAUUUGGUGGAUGAUAAUGAGCAGCCCCUCCCAGAUAGAAUGUCAAUCAACAGAGGAUUGAGCAUCA
B20: chr14:75134619:75134720:-|3pUTR|ENSG00000170348|msi1|total|mutant (ssRNA)
RNA: GGGAGUUCUACAGUCCGACGAUCAACAAGUCAAUGAGGGACUUCUUUUUAAUUUGGCCGGAUUUUGACUGGUUUUGCAACAACCGGUCUAUUAUCCGAGUCACCUAUGACAAAAAACCGGGGUUACCCCGAUAAUGCCAAAGUCAACAGAGGAUUGAGCAUCA
B21: chr12:39370042:39370220:-|CDS|ENSG00000139116|unk|total|mutant (ssRNA)
RNA: GGGAGUUCUACAGUCCGACGAUCUACUUUUGACUAUGUAUUUGACAUUGACUCCCAGCAAGAGCAGAUCUACAUUCAAUGUACCGAAAAACUAAUUGAAGGUUGCUUUGAAGGAUACAAUGCUACAGUUUUUGCUUAUGGACACAACAGAGGAUUGAGCAUCA
B22: chr11:4681751:4682711:-|CDS|ENSG00000167332|control|control|control (ssRNA)
RNA: GGGAGUUCUACAGUCCGACGAUCUUAUCCACAUCCACCAUGCCUAAGAUCCUUGCCCUUUUCUGGUUUGAUUCCCGAGAGAUUAGCUUUGAGGCCUGUCUUACCCAGAUGUUCUUUAUUCAUGCCCUCUCAGCCAUUGAAUCCCAACAGAGGAUUGAGCAUCA

Target: MSI1 full-length (mouse, UniProt Q61474 1-362)
Test: nsRBNS (natural sequence RNA bind-n-seq); RBNS binding buffer (assumed for nsRBNS): 25 mM Tris pH 7.5, 150 mM KCl, 3 mM MgCl2, 0.01% Triton X-100, 500 ug/ml BSA, 20 U/ml SUPERase-In, 4 C; UNK is unkempt and MSI1 is Musashi-1; names of the RNAs are library labels; protein concentration not given here; high values mean tight binding

Chain of UniProt Q61474 (Q61474 whole entry): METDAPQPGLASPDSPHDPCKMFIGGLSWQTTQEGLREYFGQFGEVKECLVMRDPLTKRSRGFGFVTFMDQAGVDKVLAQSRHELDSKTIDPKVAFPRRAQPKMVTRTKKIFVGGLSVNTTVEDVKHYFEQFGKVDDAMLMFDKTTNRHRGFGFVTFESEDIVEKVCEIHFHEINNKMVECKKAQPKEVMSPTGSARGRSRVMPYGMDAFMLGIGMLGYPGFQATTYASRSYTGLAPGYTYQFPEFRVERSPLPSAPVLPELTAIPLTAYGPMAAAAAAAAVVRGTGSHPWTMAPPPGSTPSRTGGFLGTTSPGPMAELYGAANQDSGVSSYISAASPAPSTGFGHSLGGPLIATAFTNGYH

Row | Binder | binding signal [enrichment R]
1 | B1 | 1
2 | B2 | 1.67
3 | B3 | 0.37
4 | B4 | 0.405
5 | B5 | 0.402
6 | B6 | 0.414
7 | B7 | 16.7
8 | B8 | 2.42
9 | B9 | 0.405
10 | B10 | 0.397
11 | B11 | 0.346
12 | B12 | 0.34
13 | B13 | 0.566
14 | B14 | 0.263
15 | B15 | 0.169
16 | B16 | 1.3
17 | B17 | 0.346
18 | B18 | 2.27
19 | B19 | 1.05
20 | B20 | 0.165
21 | B21 | 0.391
22 | B22 | 0.511
